Laboratory results taken from the supplement of paper PMC4967469.

Columns and labels:
Assay in all cases: Viability of human cancer cell lines after 72 h of drug (GDSC screen)
Bleomycin = compound: Cc1c(N)nc([C@H](CC(N)=O)NC[C@H](N)C(N)=O)nc1C(=O)N[C@H](C(=O)N[C@H](C)[C@@H](O)[C@H](C)C(=O)N[C@H](C(=O)NCCc1nc(-c2nc(C(=O)NCCC[S+](C)C)cs2)cs1)[C@@H](C)O)[C@@H](OC1OC(CO)C(O)C(O)C1OC1OC(CO)C(O)C(OC(N)=O)C1O)c1cnc[nH]1 [Bleomycin]
Method: (§1)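 Human cancer cell lines in 384-well plates, medium with 10% serum, drug for 72 h over a 256-fold dose range (nine 2-fold or five 4-fold steps up to the top dose). Adherent lines were fixed and stained with the nucleic acid dye Syto60, suspension lines read with resazurin; signal relative to control wells, capped at 0 and 100%. One two-parameter sigmoid per drug and line, fitted in a mixed model over all curves with the slope shared within a line.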

Tamoxifen = compound: CC/C(=C(\c1ccccc1)c1ccc(OCCN(C)C)cc1)c1ccccc1 [Tamoxifen]; conditions: top dose 5 µM
Method: as §1

HG-5-88-01 = compound: COc1cc(N2CCC(C(N)=O)CC2)ccc1Nc1nc(N)c(Cl)c(Nc2ccccc2S(=O)(=O)C(C)C)n1 [HG-5-88-01]; conditions: top dose 10 µM; top dose inferred
Method: as §1

Elesclomol = compound: CN(NC(=O)CC(=O)NN(C)C(=S)c1ccccc1)C(=S)c1ccccc1 [Elesclomol]; conditions: top dose 0.2 µM; top dose inferred
Method: as §1

OSI-930 = compound: O=C(Nc1ccc(OC(F)(F)F)cc1)c1sccc1NCc1ccnc2ccccc12 [OSI-930]; conditions: top dose 10.24 µM
Method: as §1

Masitinib = compound: Cc1ccc(NC(=O)c2ccc(CN3CCN(C)CC3)cc2)cc1Nc1nc(-c2cccnc2)cs1 [Masitinib]; conditions: top dose 20 µM
Method: as §1

BX-912 = compound: O=C(Nc1cccc(Nc2ncc(Br)c(NCCc3cnc[nH]3)n2)c1)N1CCCC1 [BX-912]; conditions: top dose 10.24 µM; top dose inferred
Method: as §1

VNLG/124 = compound: CCCC(=O)OCc1ccc(OC(=O)/C=C(C)/C=C/C=C(C)/C=C/C2=C(C)CCCC2(C)C)cc1 [VNLG/124]; conditions: top dose 5.12 µM; top dose inferred
Method: as §1

LAQ824 = compound: O=C(/C=C/c1ccc(CN(CCO)CCc2c[nH]c3ccccc23)cc1)NO [LAQ824]; conditions: top dose 1.024 µM; top dose inferred
Method: as §1

NSC-87877 = compound: O=S(=O)(O)c1ccc2cc(N=Nc3cc(S(=O)(=O)O)c4cccnc4c3O)ccc2c1 [NSC-87877]; conditions: top dose 16 µM; top dose inferred
Method: as §1

[1] = top dose 50 µM, screen: GDSC drug entry 1378, top dose inferred
[2] = top dose 64 µM, screen: GDSC drug entry 190

Cell Line | AUC (Bleomycin; [1]) | pIC50 (Bleomycin; [1]) | AUC (Tamoxifen) | pIC50 (Tamoxifen) | AUC (HG-5-88-01) | pIC50 (HG-5-88-01) | AUC (Elesclomol) | pIC50 (Elesclomol) | AUC (OSI-930) | pIC50 (OSI-930) | AUC (Masitinib) | pIC50 (Masitinib) | AUC (BX-912) | pIC50 (BX-912) | AUC (VNLG/124) | pIC50 (VNLG/124) | AUC (LAQ824) | pIC50 (LAQ824) | AUC (Bleomycin; [2]) | pIC50 (Bleomycin; [2]) | AUC (NSC-87877) | pIC50 (NSC-87877)
NCI-H929 (myeloma, suspension) | 0.837 | 4.57 | 0.981 | < 5.30 | 0.422 | 6.40 | 0.538 | 7.81 | – | – | – | – | – | – | – | – | – | – | – | – | – | –
JHOS-2 (ovary, adherent) | 0.417 | 5.75 | 0.98 | < 5.30 | 0.952 | < 5.00 | 0.326 | 8.43 | 0.97 | < 4.99 | 0.938 | < 4.70 | 0.947 | < 4.99 | 0.983 | < 5.29 | – | – | – | – | – | –
CL-34 (large intestine, adherent) | 0.853 | 4.34 | 0.986 | < 5.30 | 0.879 | < 5.00 | 0.982 | < 6.70 | – | – | – | – | – | – | – | – | – | – | – | – | – | –
NCC010 (kidney, adherent) | 0.871 | < 4.30 | 0.968 | < 5.30 | 0.955 | < 5.00 | 0.63 | 7.53 | – | – | – | – | – | – | – | – | – | – | – | – | – | –
NCI-N87 (stomach, adherent) | 0.843 | < 4.30 | 0.969 | < 5.30 | 0.894 | < 5.00 | 0.826 | < 6.70 | – | – | – | – | – | – | – | – | – | – | – | – | – | –
EW-22 (Ewing sarcoma, adherent) | 0.428 | 5.70 | 0.987 | < 5.30 | 0.861 | 5.10 | 0.778 | 7.11 | – | – | – | – | – | – | – | – | – | – | – | – | – | –
NCI-H508 (large intestine, semi-adherent) | 0.9 | < 4.30 | 0.936 | < 5.30 | 0.836 | < 5.00 | 0.951 | < 6.70 | – | – | – | – | – | – | – | – | – | – | – | – | – | –
DIFI (large intestine, adherent) | 0.981 | < 4.30 | 0.963 | < 5.30 | 0.904 | < 5.00 | 0.952 | < 6.70 | – | – | – | – | – | – | – | – | – | – | – | – | – | –
SK-GT-2 (stomach, adherent) | 0.756 | 4.74 | 0.984 | < 5.30 | 0.932 | < 5.00 | 0.529 | 7.82 | – | – | – | – | – | – | – | – | – | – | – | – | – | –
HCC-366 (non-small cell lung carcinoma, adherent) | 0.277 | 6.15 | 0.979 | < 5.30 | 0.945 | < 5.00 | 0.551 | 7.76 | – | – | – | – | – | – | – | – | – | – | – | – | – | –
HT-1197 (bladder, adherent) | 0.481 | 5.56 | 0.938 | < 5.30 | 0.89 | < 5.00 | – | – | 0.959 | < 4.99 | 0.98 | < 4.70 | 0.983 | < 4.99 | 0.981 | < 5.29 | 0.4 | 7.49 | 0.458 | 5.52 | 0.977 | < 4.80
RS4-11 (leukaemia, suspension) | 0.709 | 4.94 | 0.97 | < 5.30 | 0.773 | 5.45 | – | – | 0.944 | < 4.99 | 0.903 | < 4.70 | 0.226 | 6.95 | 0.988 | < 5.29 | 0.169 | 8.15 | 0.022 | > 6.60 | 0.989 | < 4.80
A673 (rhabdomyosarcoma, adherent) | 0.547 | 5.38 | 0.986 | < 5.30 | 0.87 | 5.11 | – | – | 0.963 | < 4.99 | 0.979 | < 4.70 | 0.822 | 5.28 | 0.984 | < 5.29 | 0.499 | 7.20 | 0.663 | 4.97 | 0.959 | < 4.80
IST-MES1 (mesothelioma, adherent) | 0.473 | 5.58 | 0.975 | < 5.30 | 0.952 | < 5.00 | – | – | 0.983 | < 4.99 | 0.97 | < 4.70 | 0.948 | < 4.99 | 0.988 | < 5.29 | 0.566 | 7.01 | 0.877 | < 4.19 | 0.988 | < 4.80
Hs940-T (melanoma, adherent) | 0.764 | 4.66 | 0.981 | < 5.30 | 0.839 | 5.04 | – | – | 0.968 | < 4.99 | 0.764 | 5.06 | 0.711 | 5.54 | 0.983 | < 5.29 | 0.477 | 7.26 | – | – | 0.983 | < 4.80
VMRC-LCD (lung adenocarcinoma, adherent) | 0.886 | 4.40 | 0.986 | < 5.30 | 0.988 | < 5.00 | 0.668 | 7.47 | – | – | – | – | – | – | – | – | – | – | – | – | – | –
KATOIII (stomach, semi-adherent) | 0.97 | < 4.30 | 0.974 | < 5.30 | 0.988 | < 5.00 | 0.795 | 7.07 | – | – | – | – | – | – | – | – | – | – | – | – | – | –
H2591 (mesothelioma, adherent) | 0.548 | 5.36 | 0.98 | < 5.30 | 0.963 | < 5.00 | – | – | 0.982 | < 4.99 | 0.915 | < 4.70 | 0.927 | < 4.99 | 0.943 | < 5.29 | 0.503 | 7.19 | 0.493 | 5.42 | 0.98 | < 4.80

pIC50: −log10 of the molar value. The IC50 comes from the fitted curve, where viability falls to half of the control; fits outside the tested doses are given as limits. AUC is the area under the same curve over the 256-fold range up to the top dose, as a fraction: 1 means no effect, lower means more sensitive. For part of these data: Where the top dose is marked as inferred, it was calculated from the reported fits. For part of these data: An entry number marks a drug with two screens in the source, which often give different values.
